Among all 310,000 compounds or so, about 14,000 (4.5%) showed an effect of 50% or more. Effects have a minus sign here. Some of the results follow.
target: human ether-à-go-go-related gene (hERG) potassium channel (human, UniProt Q12809); assay: primary screen, population patch clamp on CHO cells stably expressing hERG
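Also: peak tail current of the secondary pulse compared with the same well before compound.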

human ether-à-go-go-related gene (hERG) potassium channel, sequence (Q12809 whole entry, looked up): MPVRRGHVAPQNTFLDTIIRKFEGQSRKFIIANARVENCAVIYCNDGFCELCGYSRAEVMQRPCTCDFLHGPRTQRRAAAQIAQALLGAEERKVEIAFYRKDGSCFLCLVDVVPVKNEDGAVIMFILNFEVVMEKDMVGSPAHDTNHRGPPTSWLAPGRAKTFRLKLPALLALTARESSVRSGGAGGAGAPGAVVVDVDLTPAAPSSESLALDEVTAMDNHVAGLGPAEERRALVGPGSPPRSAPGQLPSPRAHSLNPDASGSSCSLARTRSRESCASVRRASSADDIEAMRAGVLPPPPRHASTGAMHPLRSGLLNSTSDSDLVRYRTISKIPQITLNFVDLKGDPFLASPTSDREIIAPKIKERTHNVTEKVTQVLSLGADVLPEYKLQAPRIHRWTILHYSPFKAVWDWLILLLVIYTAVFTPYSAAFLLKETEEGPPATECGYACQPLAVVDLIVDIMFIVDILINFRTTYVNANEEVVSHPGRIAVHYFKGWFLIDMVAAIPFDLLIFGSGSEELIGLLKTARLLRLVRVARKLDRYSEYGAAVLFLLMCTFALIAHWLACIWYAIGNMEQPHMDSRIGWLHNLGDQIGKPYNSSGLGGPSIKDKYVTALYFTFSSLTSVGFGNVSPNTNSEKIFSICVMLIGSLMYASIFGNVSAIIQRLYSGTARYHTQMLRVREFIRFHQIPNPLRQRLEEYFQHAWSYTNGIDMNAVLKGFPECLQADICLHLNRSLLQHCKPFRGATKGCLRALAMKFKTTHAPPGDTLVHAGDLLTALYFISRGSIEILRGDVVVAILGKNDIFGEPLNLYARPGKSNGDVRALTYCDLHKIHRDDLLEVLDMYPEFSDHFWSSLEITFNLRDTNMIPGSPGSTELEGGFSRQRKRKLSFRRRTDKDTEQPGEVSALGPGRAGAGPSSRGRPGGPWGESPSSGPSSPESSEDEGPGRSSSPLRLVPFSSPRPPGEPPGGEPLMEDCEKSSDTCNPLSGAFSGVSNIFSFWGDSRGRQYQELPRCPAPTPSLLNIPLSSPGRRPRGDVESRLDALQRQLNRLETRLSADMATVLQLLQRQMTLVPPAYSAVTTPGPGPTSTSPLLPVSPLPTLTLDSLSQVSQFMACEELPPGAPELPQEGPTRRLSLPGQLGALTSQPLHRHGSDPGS

| Compound | hERG current change (%, negative = inhibition) at 10uM [%] |
| --- | --- |
| Fc1cnc(N2CCOCC2)nc1N1CCOCC1 | 12.7 |
| C/C(=N/OCO/N=C(\C)c1ccccc1F)c1ccccc1F | 2.36 |
| Cc1ccc2nc(SCC(=O)N3CCC(C)CC3)nc(=O)n2c1 | -9.74 |
| O=C(NCC(=O)N(c1cccnc1)C(C(=O)NC1CCCC1)c1cccs1)c1ccco1 (stereo not drawn) | -2.17 |
| Cc1ccc(S(=O)(=O)N2CCCCC2)cc1NC(=O)C1CCCO1 (stereo not drawn) | 2.45 |
| CCOC(=O)N1CCN(Cc2ccc3ccccc3c2)CC1 | 10.3 |
| Cc1ccc(S(=O)(=O)N2CCN(C(=O)COC(=O)C3(C)CC3(Cl)Cl)CC2)c(C)c1 (stereo not drawn) | -0.582 |
| CC(C)(C)NC(=O)NC(=O)COC(=O)c1ccc(OC(F)(F)F)cc1 | 10.7 |
| CCc1ccc(C(O)(CC)C(CN2CCOCC2)c2ccccc2)cc1.Cl (stereo not drawn) | -17 |
| COc1ccccc1OCc1ccc(C(=O)N2N=C(C(F)F)CC2(O)C(F)F)o1 (stereo not drawn) | -11.5 |
| Cc1nc(NCC2CCCO2)c2nnn(Cc3ccccc3Cl)c2n1 (stereo not drawn) | -17.7 |
| Nc1ccc2nn(-c3cc([N+](=O)[O-])ccc3O)nc2c1 | 12.3 |
| COc1ccc(-c2nnc(SCC(=O)Nc3cc(C)on3)o2)cc1 | 14.4 |
| O=C(CSc1ncnc2c1cnn2-c1cccc(Cl)c1)NCC1CCCO1 (stereo not drawn) | 7.88 |
| COc1ccc(C(=O)Cc2cc(OC)c(OC)cc2C(=O)c2ccccc2F)cc1OC | -14.7 |
| O=C(CCc1ccccc1)OCC(=O)c1ccc(Br)cc1 | 20.6 |
| O=C(Nc1ccccn1)C(F)(F)C(F)(F)C(F)(F)C(F)(F)C(=O)Nc1ccccn1 | -18 |
| Cl.O=[N+]([O-])c1ccc(N2CCCNCC2)c2ncccc12 | -64.8 |
| CCOc1ccc(NC(=O)C(c2ccccn2)N(C(=O)CCl)c2ccc(OC)cc2)cc1 (stereo not drawn) | -1.51 |
| CCOc1cc(NC(=O)c2ccccn2)c(OCC)cc1NC(=O)c1cccc(C)c1 | 8.7 |
| CSC(=S)N/N=C/c1ccccc1 | 29.6 |
| S=C(Nc1ccccc1)Nc1cccc(Br)c1 | 3.13 |
| CN(C(=O)CSc1nc2[nH]ncc2c(=O)[nH]1)c1ccccc1 | 13.6 |

| Compound | hERG current change (%, negative = inhibition) at 10uM [%] |
| --- | --- |
| COCCN(C(=O)COc1ccccc1C#N)c1c(N)n(Cc2ccccc2)c(=O)[nH]c1=O | 11.6 |
| CCOCCCNC(=O)C(NC(=O)c1ccc(NC(C)=O)cc1)c1ccc(C)cc1 (stereo not drawn) | -20.5 |
| COc1cc(OC)c(OC)cc1CN1CCCC(C(=O)c2ccccc2SC)C1 (stereo not drawn) | -58.5 |
| CCOC(=O)C1(C)C=C(Nc2cccc(OC)c2)C(=O)N1c1ccccc1 (stereo not drawn) | 6.72 |
| O=C(O)c1ccc(COc2ccc(/C=N/NC(=O)c3cccs3)cc2)cc1 | 9.44 |
| O=C(O)CCCc1ccc2ccc3cccc4ccc1c2c34 | 9.08 |
| Cc1cccc(N(C(=O)CCC(=O)Nc2cc(C)on2)C(C(=O)NC2CCCC2)c2ccccc2)c1 (stereo not drawn) | 13.7 |
| O=C(Nc1nccs1)c1ccc(Br)cc1 | 12.1 |
| CCn1cc(CNC(=O)c2cc(COc3ccc(F)cc3F)on2)cn1 | -5.98 |
| COc1cccc(-c2c(C(=O)N/N=C/c3ccco3)nnn2-c2nonc2N)c1 | 7.22 |
| CSc1sc(-c2ccnc(SCC(=O)C(C)(C)C)n2)c2c1C(=O)CC(C)(C)C2 | 10.8 |
| CCCCN1C2=C(C(=O)CCC2)C(c2ccc(Cl)c(Cl)c2)C2=C1c1ccccc1C2=O (stereo not drawn) | 18.1 |
| Cc1ccc(CS(=O)(=O)Cc2ccc(C(=O)NC3CC3)o2)cc1 | 7.4 |
| CCn1cc(C(=O)NCC(=O)OC)c2cc(OC)c(OC)cc2c1=O | -0.272 |
| O=C1c2ccccc2C(=O)N1CCCOCc1c[nH]c(=O)[nH]c1=O | 11.8 |
| O=C(O)C(Cc1ccc(F)cc1)c1ccccc1 (stereo not drawn) | 13.4 |
| C#CCOC(=O)Nc1cnccc1C(F)(F)F | 5.49 |
| Cc1ccc(NS(=O)(=O)c2cc(C(=O)Nc3cccc(N(C)S(C)(=O)=O)c3)ccc2C)c(C)c1 | 11.2 |
| CCOC(=O)c1cc(C)n(-c2c(C)n(C)n(-c3ccccc3)c2=O)c1C | 21.6 |
| CN(Cc1cccs1)C(=O)C1CCN(S(=O)(=O)c2ccccc2)CC1 | -23.8 |
| O=C(Nc1cccc(C(F)(F)F)c1)OCCN1CCN(Cc2ccccc2)CCC1=O | -49.9 |
| Cc1ccc(Nc2nnns2)cc1 | 18 |

— publication PMC4336329 (PLoS ONE, 2015)
